Reference: the BET-seq Pho4 binding data (Le et al. 2018)
The list shows a part of the results. The energies were worked out here from pooled read counts, against the library average; single values are noisy.

Target: T1, Pho4 (S. cerevisiae) (UniProt P07270)
T1 sequence: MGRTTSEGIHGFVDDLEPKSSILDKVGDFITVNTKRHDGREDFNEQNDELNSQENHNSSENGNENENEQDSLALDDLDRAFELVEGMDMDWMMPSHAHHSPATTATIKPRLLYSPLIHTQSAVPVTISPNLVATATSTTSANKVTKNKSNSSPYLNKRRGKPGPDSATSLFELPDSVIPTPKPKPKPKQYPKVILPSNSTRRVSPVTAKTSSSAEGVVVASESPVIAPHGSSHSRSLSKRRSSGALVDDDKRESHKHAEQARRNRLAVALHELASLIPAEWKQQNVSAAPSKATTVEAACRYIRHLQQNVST
Assay: relative binding free energy (BET-seq); higher = weaker binding
Conditions: reference: library average

Sequence	relative binding free energy [kcal/mol]
TAATGCACGTGTATGG	0.06
TCGTGCACGTGATTTG	0.08
GGGGCCACGTGGTAAT	-0.06
TAAGGCACGTGATTAA	-0.08
AAAGGCACGTGCGGAA	0.01
TAGGTCACGTGATGGC	0.24
GTTAACACGTGGTGTC	0.12
TGTGGCACGTGAGACG	0.05
AAGGTCACGTGTCAGT	0.24
TTATGCACGTGCGTGG	-0.13
TTATTCACGTGCATTT	0.34
TGGCGCACGTGCGTTT	-0.04
ACTAGCACGTGGTTGG	-0.16
TGTTACACGTGTGTAA	0.1
TTTTCCACGTGATTTT	0.18
CTGTACACGTGTATTG	-0.03
AGTTTCACGTGAAATT	0.43
ATGTACACGTGGGCGG	-0.08
TGGAACACGTGGTAGA	-0.11
ATATACACGTGTGGTT	0.03
GTGTTCACGTGTTCGT	0.27

Sequence	relative binding free energy [kcal/mol]
TTGTACACGTGGAGGT	-0.05
TTTATCACGTGCAATT	0.18
TTTTGCACGTGCAGGT	0.01
GTCAACACGTGTGGGA	0.06
TTAGTCACGTGTGGCG	0.13
TCGGTCACGTGGCAGT	0.14
GAATTCACGTGTTATT	0.3
AATAGCACGTGTAGAT	0.24
ATTTACACGTGTGTCT	0.15
GTTGTCACGTGTAATT	0.22
GGAGGCACGTGTAGAG	-0.05
AGGAGCACGTGAAGTG	0.21
GTAGGCACGTGTCGAG	-0.09
TTCTTCACGTGTATGA	0.23
TTATTCACGTGGTCGT	0.12
TCCTTCACGTGGTATG	0.24
TTAGTCACGTGTAAAG	0.13
TCATTCACGTGCGTGT	0.14
GAGGTCACGTGTGGTC	0.39
TGGATCACGTGCATAT	0.22
TGGCGCACGTGGGTTG	-0.21

Sequence	relative binding free energy [kcal/mol]
TCGGACACGTGGGTTT	-0.05
TGGTGCACGTGTATGC	-0.07
TAAGGCACGTGAGTTT	0.18
TTGGGCACGTGGTAAA	-0.07
GTTGCCACGTGAAGGG	0.24
GTTTTCACGTGTGGTT	0.29
GGGATCACGTGGGATC	0.17
ATATACACGTGGGGTG	-0.1
ATTTGCACGTGTGTAG	0.04
CGGTTCACGTGAGTGT	0.37
AGTAGCACGTGTAAGT	-0.04
GGTAGCACGTGTGAGT	0.04
TAGTACACGTGGGGGA	-0.05
AGTAACACGTGTTTGA	0
GTCGGCACGTGCTGAG	-0.05
CGTGACACGTGGTTAG	-0.06
GGTTGCACGTGTTAAG	0.05
ATGTTCACGTGGCGGT	0.17
TGGGTCACGTGGGCGC	0.03
GGGTGCACGTGCGGCG	-0.1
GATGGCACGTGGGCTT	-0.22
